The record followed here is the supplement of paper PMC10126150.

The test system of this data set is ATP. As to the kind of experiment: switch fluorescence ratio, 500 uM ATP over buffer (Cy3 cluster intensity, sum of 5 cycles each) (fold (ratio)); higher = stronger signal-on switching upon ATP binding; sequences stand for … in TCGTCGGCAGCGTCAGATGTGTATAAGAGACAGTTTTTTTTTTTTTTTTTTTTTTTTT…TC. The note with it: aptamer strand: ATP DNA aptamer (quencher-CACCTGGGGGAGTATTGCGGAGGAAGG + anchor), 100 nM annealed; ATP concentration: 500 uM; one replicate. Put shortly: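 Clusters carrying Cy3-labelled switching strands on a modified Illumina MiSeq flow-cell were annealed to 100 nM quencher-labelled ATP aptamer and imaged in selection buffer. They were imaged again after 15 min with 500 uM ATP at 22 °C, over five buffer/ATP cycles with NaOH stripping and re-annealing in between. For each cluster, the fluorescence ratio is the summed Cy3 intensity of the target cycles divided by that of the buffer cycles, averaged per switch-domain sequence. Clusters outside 100-1000 RFU were left out.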

Sequences with one replicate were seen in a single cluster, so their values are uncertain.
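Also: ATP exposure 15 min at 22 °C before imaging.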

With GTAAGTTTT, the switch fluorescence ratio was found to be 0.999.

Turning to CATCGTAGTG, the switch fluorescence ratio was 0.998.

On to CCTGTACTCC, for which the switch fluorescence ratio was determined as 3.23.

AAACTAGGCT: the switch fluorescence ratio came out at 1.01.

For TTTACAACGA, the switch fluorescence ratio was determined as 1.04.

Consider TGACTGTAGG, for which the switch fluorescence ratio came out at 1.02.

As to GATTCGGCTG, the switch fluorescence ratio is 0.987.

With CGGACCCGCG, the switch fluorescence ratio came to 1.03.

For ACCGCCTCGA, the switch fluorescence ratio came to 1.18.

As for TTTTGCCGAC, the switch fluorescence ratio worked out at 0.942.

As for GGCGTAAGGT, the switch fluorescence ratio was 0.997.

Take TCTCGGTCGA: the switch fluorescence ratio amounted to 0.996.

Consider ACCTCATGGT, for which the switch fluorescence ratio was 1.

With CGTCGCGATC, the switch fluorescence ratio turned out to be 3.42.

Regarding TTACTATCCA, the switch fluorescence ratio came to 1.04.

Regarding GCTCGTTGTT, the switch fluorescence ratio is 0.983.

Take AACTCTACAG: the switch fluorescence ratio was found to be 1.12.

For TTACAATATC, the switch fluorescence ratio was determined as 1.13.

TGCTCTTATT: the switch fluorescence ratio was 1.06.

Regarding CACGGGTATA, the switch fluorescence ratio is 1.02.

As for TTCGAAAACT, the switch fluorescence ratio is 1.

Take ACCTCCGGTT: the switch fluorescence ratio was found to be 1.18.

As for CTGTTTGATC, the switch fluorescence ratio worked out at 0.962.

With CCCGCGTTAT, the switch fluorescence ratio was determined as 3.8.

Regarding TTATCGTCCG, the switch fluorescence ratio turned out to be 1.

For the sequence TTGTGGAAAG, the switch fluorescence ratio is 1.02.

On to AAATGAGAGG, for which the switch fluorescence ratio came out at 1.03.

GACGAAAGTG: the switch fluorescence ratio is 1.01.

On to CGATGGCCAA, for which the switch fluorescence ratio stood at 0.977.

With TGGGACACAC, the switch fluorescence ratio amounted to 1.35.

With TTGATGGACT, the switch fluorescence ratio came out at 1.01.

As for GAAAGATTTC, the switch fluorescence ratio was determined as 0.993.

Consider ATTCATTGAT, for which the switch fluorescence ratio was 1.01.

Consider AACACTC, for which the switch fluorescence ratio was found to be 1.02.

In the case of TATAGAAAC, the switch fluorescence ratio came out at 0.979.

CCACGACTGC: the switch fluorescence ratio was found to be 1.24.

Take CACATGGTTT: the switch fluorescence ratio came to 0.943.

In the case of AACGAGCATG, the switch fluorescence ratio amounted to 1.03.

With TGTGTGTCGA, the switch fluorescence ratio came out at 0.992.

As to CGAAGAATCT, the switch fluorescence ratio is 0.996.

AACATACGTT: the switch fluorescence ratio worked out at 1.1.

Regarding AGTAGTAACC, the switch fluorescence ratio worked out at 1.03.

On to GCATTCTTCT, for which the switch fluorescence ratio was found to be 0.986.

Consider GGCATAAGCG, for which the switch fluorescence ratio is 0.988.

As to ATCTAGCTGG, the switch fluorescence ratio was 1.01.

On to TCGTTAACTT, for which the switch fluorescence ratio came out at 0.999.

For the sequence TGGCGCCCCG, the switch fluorescence ratio is 1.01.

Regarding ATGGCCTGGT, the switch fluorescence ratio is 1.02.

Turning to ATCAGAATGG, the switch fluorescence ratio turned out to be 0.999.

As to ACTTGTGAGT, the switch fluorescence ratio came to 1.01.

In the case of GGTAAGCCAA, the switch fluorescence ratio turned out to be 0.981.

CTGCGTCAGG: the switch fluorescence ratio was 1.1.

For CAATAATTAA, the switch fluorescence ratio worked out at 0.988.

Regarding TCTCTGATAG, the switch fluorescence ratio is 1.03.

In the case of TATAGCTATT, the switch fluorescence ratio came to 1.01.

TTTATATTAC: the switch fluorescence ratio is 1.08.

With AAACGAGAG, the switch fluorescence ratio is 1.06.

For AGTTGACGGT, the switch fluorescence ratio was 1.03.

Regarding GAGTTATCGC, the switch fluorescence ratio is 1.01.

On to AGGTCAAAAC, for which the switch fluorescence ratio worked out at 0.963.

On to TTAGGTGAAA, for which the switch fluorescence ratio amounted to 1.02.

As for GTAAGGGGCC, the switch fluorescence ratio turned out to be 1.01.

Turning to TTATCTTGGC, the switch fluorescence ratio was determined as 1.

As to ATATTAGCGG, the switch fluorescence ratio turned out to be 0.97.

On to ATTTCGGAGG, for which the switch fluorescence ratio came out at 1.02.

ATTTACCACC: the switch fluorescence ratio is 1.26.

Turning to GAGGGCTCAT, the switch fluorescence ratio stood at 1.06.
